Measurements as given in PubChem BioAssay AID686979 (National Center for Advancing Translational Sciences (NCATS), 2013).
Among all 420,000 compounds or so, about 50,000 (12%) were called active. Inconclusive means that the source gave no clear call. Such entries were picked first, then a sample of the others. Calls come from the whole dose curve; as a rule, active = well fitted inhibition curve with a large enough effect; inconclusive = small, poorly fitted or top-dose-only effect; inactive = flat fitted curve, though single readings scatter. Potencies of inconclusive entries are left out as doubtful fits.

Assay: qHTS for Inhibitors of human tyrosyl-DNA phosphodiesterase 1 (TDP1): qHTS in cells in presence of CPT; note: nearly all actives have a fitted effect of over 55% in size
Conditions: chicken DT40 Tdp1-/-;hTDP1 cells + 20 nM CPT, ATP luminescence, 48 h; activity change, negative = growth inhibition: at 46.2 µM (top of the series) unless noted
In short: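 Cell growth measured by CellTiter-Glo luminescence after a minimum 48 h, 37 C compound exposure with 20 nM CPT in Tdp1-knockout DT40 cells stably expressing hTDP1, seeded 400/well; qHTS titration format.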
% is set by controls: 0 for no effect and ±100 for the full control effect; potency is the fitted concentration of half-maximal effect; tags give direction and shape of the fitted curve.

SMILES	Potency	activity change, negative = growth inhibition
CC1=C(C(=O)Nc2ccccc2)SCCO1	inconclusive [inhibitor, single point]	
CC(C)N1CCN(Cc2c[nH]c3ccccc23)CC1CCO (configuration not stated)	inconclusive [inhibitor, single point]	
CCOc1ccc(NC(=O)c2c(C)nn(Cc3ccccc3)c2Cl)cc1	inactive	
Cc1ccc(S(=O)(=O)N(C)C[C@H]2Oc3cc(Br)ccc3S(=O)(=O)N([C@H](C)CO)C[C@H]2C)cc1	inconclusive [inhibitor, single point]	
Cc1cccc(C)c1OP(N)(=O)Oc1c(C)cccc1C	inconclusive [inhibitor, single point]	
O=C(Nc1c(Cl)cccc1Cl)Oc1cccc2cccnc12	active: 4.11 µM	
CCOC1=C2[C@@H](CN(S(=O)(=O)c3ccccc3C)[C@H]2c2ccc(Cl)cc2)[C@H]2C(=O)NC(=O)[C@H]2C1	inconclusive [inhibitor, single point]	
C[C@]12CCC3C(CC[C@H]4C[C@@H](O)CC[C@]34C)[C@H]1CC[C@H]2O (some centres not stated)	inactive	
COc1cccc(N2C(=O)/C(=C/c3ccc(C)o3)C(=O)NC2=S)c1	active: 14.6 µM	
C=CCN(c1ccc(C(=O)N(CC)CC)cc1)S(C)(=O)=O	inactive	
O=C(c1ccc2nc(-c3ccco3)c(-c3ccco3)nc2c1)N1CCC2(CC1)OCCO2	inconclusive [inhibitor, single point]	
Cc1ncc(CC(=O)n2cc(C(=O)c3cc(Cl)ccc3O)cn2)s1	inconclusive [inhibitor, single point]	
Cc1ccc(NC(=O)NCc2ccc3c(c2)CCN3C(=O)c2ccccc2)c(Cl)c1	inconclusive [inhibitor, single point]	
C=CCN1C(=O)NC(=O)/C(=C/C=C/c2ccccc2)C1=O	active: 16.4 µM	
c1ccc(Nc2ccc3ccccc3c2)cc1	inconclusive [inhibitor, single point]	
CC(=O)O[C@H]1CC[C@@]2(C)C(=CC(=O)C3C2CC[C@@]2(C)C3C[C@H](OC(C)=O)[C@@H]2OC(C)=O)C1 (some centres not stated)	inconclusive [inhibitor, single point]	
CCCCCNc1c(C(=O)OCC)c(=O)[nH]c2ccccc12	inconclusive [inhibitor, single point]	
COc1ccc2c(c1)c(CCN)c(C)n2Cc1ccccc1	inconclusive [inhibitor, single point]	
COC(=O)C1=CO[C@@H](C)[C@@H]2CN(CCc3c[nH]c4ccccc34)CC[C@H]12	inconclusive [inhibitor, single point]	
CCN(CC)C(=O)Oc1cc2c(-c3cc4cccc(OC)c4o3)cc(=O)oc2cc1C	active: 16.4 µM	
O=P(Nc1ccccc1)(Nc1ccccc1)Oc1ccc(Cl)cc1	inactive	
N=c1ccccn1Cc1ccccc1	inactive	
CCC12C=CCN3CCC4(c5cc(Br)c(OC)cc5N(C)C4C(O)(C(=O)OC)C1OC(C)=O)C32 (configuration not stated)	inconclusive [inhibitor, partial curve]	
CC/C(=C(\c1ccc(O)cc1)c1ccc(OCCN(C)C)cc1)c1ccccc1	inconclusive [inhibitor, single point]	

SMILES	Potency	activity change, negative = growth inhibition
C[C@H](CCCC(C)(C)O)[C@H]1CC[C@H]2[C@@H]3CC=C4C[C@@H](O)CC[C@]4(C)[C@H]3CC[C@]12C	inconclusive [inhibitor, single point]	
Cc1cc2c(cc(C(=O)N3CCC(C(=O)NC4CCCC4)CC3)n2Cc2c(F)cccc2Cl)o1	active: 18.4 µM	
CC1CCC(C)(NS(=O)(=O)OCC(Cl)(Cl)Cl)CC1 (configuration not stated)	inconclusive [inhibitor, partial curve]	
Cc1cc(=O)oc2c(C)c(OCC(=O)N3CCC(C(=O)O)(c4ccccc4)CC3)ccc12	inactive	
c1ccc(NC2=NCCS2)cc1	inactive	
CC[C@@]1(C(=O)OC)N[C@H](CN(C)C(=O)c2ccc(C(C)(C)C)cc2)[C@@H]2C(=O)N(Cc3ccccc3)C(=O)[C@@H]21	inconclusive [inhibitor, single point]	
CC(Cc1ccccc1)NCCC(=O)NC(C)Cc1ccccc1 (configuration not stated)	inconclusive [inhibitor, partial curve]	
COC(=O)OCC12CCC(O1)C1(C)C(=O)OCC21 (configuration not stated)	inconclusive [inhibitor, single point]	
COc1ccccc1N1CCN(CCc2ccccc2)CC1		inconclusive: -30.7% [inhibitor]
CCCCn1c(=O)c(C(=O)Nc2ccsc2C(=O)OC)c(O)c2ccccc21	active: 20.6 µM	
CC(CO)NC(=O)C1C=C2c3cccc4[nH]cc(c34)C[C@H]2N(C)C1 (some centres not stated)	inactive	
N#Cc1cc2c(nc1SCC(=O)Nc1ccc(C(F)(F)F)cc1)C1CCN2CC1	active: 13 µM	
CCn1c(O)c(C=Nc2ccc(S(N)(=O)=O)cc2)c(=O)[nH]c1=S	inactive	
Cc1ccc(-n2c(O)c(C=NCc3ccco3)c(=O)[nH]c2=S)cc1C	inactive	
COc1ccccc1NP1(=O)OCC(C)([N+](=O)[O-])CO1 (configuration not stated)	inactive	
COc1ccccc1-n1c(/C=C/c2ccccn2)nc2ccccc2c1=O	inconclusive [inhibitor, single point]	
CCN1CCN(C(=O)Cc2coc3ccc4ccccc4c23)CC1	inconclusive [inhibitor, partial curve]	
COc1ccc(-n2c(/C=C\c3ccccc3F)nc3ccccc3c2=O)c(OC)c1	active: 14.6 µM	
CCOc1ccccc1-n1c(O)c(C=NCc2ccc3c(c2)OCO3)c(=O)[nH]c1=O	inactive	
O=C(Nc1ccc(Br)cc1)c1cccc(S(=O)(=O)N2CCc3ccccc32)c1	active: 23.1 µM	
CCOC(=O)c1c(-n2c(C)cc(C=C3C(=O)NC(=S)NC3=O)c2C)sc2c1CCCC2	active: 23.1 µM	
c1ccc(CCc2ccc3n2Cc2cnnn2-c2ccccc2-3)cc1	active: 6.51 µM	
CC(=O)O[C@@H]1/C=C/[C@](C)(O)C[C@@H](C)C/C=C/[C@H]2[C@H](O)C(C)=C(C)[C@H]3[C@H](Cc4ccccc4)NC(=O)[C@@]123	active: 0.58 µM	
COc1ccc(N2C(=O)NC(=O)/C(=C\c3ccccc3[N+](=O)[O-])C2=O)cc1	inactive	

SMILES	Potency	activity change, negative = growth inhibition
COc1cc(C2c3cc4c(cc3C(OC(C)=O)[C@H]3COC(=O)C23)OCO4)cc(OC)c1OC (some centres not stated)	active: 1.03 µM	
O=C(O)c1nn(Cc2ccc(Cl)cc2)c2ccccc12	inactive	
OC1/C(=C/c2ccc(Cl)cc2Cl)N2CCC1CC2 (configuration not stated)	inactive	
Cc1ccc(C2CN(C)CC2C(=O)c2ccc(F)cc2)cc1 (configuration not stated)	inconclusive [inhibitor, single point]	
NCCNc1ccc([N+](=O)[O-])c2cccnc12	inconclusive [inhibitor, single point]	
CCOP(=S)(OCC)Oc1cc(C)oc(=O)c1Cl	inconclusive [inhibitor, single point]	
CCOC(=O)[C@]12Cc3c(cc(OC)c(OC)c3OC)[C@H]1N(CCC(=O)OC)C(=O)c1ccccc12	active: 18.4 µM	
Cc1cccc(N2C(=O)NC(=O)/C(=C/c3ccc([N+](=O)[O-])o3)C2=O)c1	inconclusive [inhibitor, partial curve]	
CSc1ccc(CN2CCN(C(=O)COc3cccc(C)c3)CC2)cc1	active: 16.4 µM	
Cc1cccnc1-n1c(C)nc2ccccc2c1=O	inactive	
Cc1c(C=O)c2ccccc2n1Cc1cccc(F)c1	inconclusive [inhibitor, single point]	
CCCCN1CCS(=O)(=O)N(Cc2ccccc2Br)CC(C(=O)OC)C1 (configuration not stated)	inconclusive [inhibitor, single point]	
O=c1c2cc(Cl)cc(Cl)c2nc(CN2CCOCC2)n1-c1ccccc1F	inconclusive [inhibitor, single point]	
COc1cccc(NC(=O)c2ccc3c(=O)n4nc(Nc5ccccc5OC)sc4nc3c2)c1	active: 5.8 µM	
O=Cc1cn(CCCOc2ccccc2)c2ccccc12	inconclusive [inhibitor, single point]	
NS(=O)(=O)c1ccc(N=Cc2c(O)n(C3CCCCC3)c(=O)n(C3CCCCC3)c2=O)cc1	active: 14.6 µM	
COP(=O)(OC)C1(Nc2ccc(C)cc2)CCCCC1		inconclusive: -35.4% [inhibitor]
Cc1ccc(-n2c(C)nc3ccccc3c2=O)cc1C	inconclusive [inhibitor, partial curve, poor fit]	
Cc1cccc(-n2c(/C=C/c3c[nH]c4ccccc34)nc3ccccc3c2=O)c1	active: 2.59 µM	
Cc1cccc(NP(=O)(Oc2ccccc2)Oc2ccccc2)c1C	inconclusive [inhibitor, single point]	
c1cc(CN2CCCC3(CCNCC3)C2)ccn1	inconclusive [inhibitor, single point]	
C[C@]12CCC(=O)C=C1CC[C@@H]1[C@@H]2C(=O)C[C@]2(C)C(=O)CC[C@@H]12	inactive	
CCN1C(=O)/C(=C/c2ccc(N(CC)CC)cc2OC)C(=O)NC1=S	inconclusive [inhibitor, single point]	
C#C[C@]1(O)CCC2C3CC=C4C[C@H](O)CC[C@]4(C)C3CC[C@@]21C (some centres not stated)	inconclusive [inhibitor, partial curve]	
